# PubChem BioAssay AID588342 (National Center for Advancing Translational Sciences (NCATS), 2011)
# The whole screen tested about 360,000 compounds, of which about 25,000 (6.9%) were called active. The shares of active, inactive and inconclusive entries below differ from those in the screen. The call rests on the fitted dose curve; in most records, active means well fitted inhibition curve with a large enough effect; inconclusive means small, poorly fitted or top-dose-only effect; inactive means flat fitted curve, though single readings scatter. Potencies beside an inconclusive call are fits to weak or partial responses and may not hold up. Where a structure was tested more than once in an assay, its records may differ in their call.
# Target: Luciferin 4-monooxygenase (Photinus pyralis) (UniProt P08659)
# Sequence of UniProt P08659 (P08659 whole entry, looked up): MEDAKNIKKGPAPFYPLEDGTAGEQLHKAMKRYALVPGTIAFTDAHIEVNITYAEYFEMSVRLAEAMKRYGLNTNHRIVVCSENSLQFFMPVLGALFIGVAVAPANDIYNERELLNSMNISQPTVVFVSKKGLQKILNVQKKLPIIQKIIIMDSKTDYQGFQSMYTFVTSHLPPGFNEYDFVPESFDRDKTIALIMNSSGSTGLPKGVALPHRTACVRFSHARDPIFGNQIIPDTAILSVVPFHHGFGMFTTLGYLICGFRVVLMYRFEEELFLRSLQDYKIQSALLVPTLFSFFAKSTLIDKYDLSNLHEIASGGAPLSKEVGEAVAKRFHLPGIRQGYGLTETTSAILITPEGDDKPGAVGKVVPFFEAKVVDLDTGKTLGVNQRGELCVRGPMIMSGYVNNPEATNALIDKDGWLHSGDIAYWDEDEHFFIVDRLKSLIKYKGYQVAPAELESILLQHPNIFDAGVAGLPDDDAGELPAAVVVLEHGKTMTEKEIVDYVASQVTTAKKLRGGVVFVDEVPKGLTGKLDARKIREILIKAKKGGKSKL
# Experiment: qHTS profiling assay for firefly luciferase inhibitor/activator using purifed enzyme and Km concentrations of substrates (counterscreen for miR-21 project); further: nearly all actives have a fitted effect of over 55% in size
# Conditions: purified FLuc, luminescence inhibition; series mostly up to 57.5 µM
# How it was run: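 Biochemical qHTS of compounds, final roughly 60 µM downward over six points, against 10 nM purified firefly luciferase using Km concentrations of substrates (10 uM D-luciferin, 10 uM ATP) in Tris acetate pH 7.5 buffer; luminescence output.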
# Potency means the concentration at half of the fitted maximal effect; tags describe the fitted curve by direction and shape.
row,SMILES,Potency
1,Cc1cc(Nc2ccc(F)cc2)nc(N)n1,"inconclusive: 42.6 µM [inhibitor, partial curve, poor fit]"
2,COc1ccc(S(=O)(=O)N2CCCC2C(=O)n2nc(C)cc2C)cc1 (stereo not given),inactive
3,CCCCOC(=O)/C(C#N)=C\c1ccc(-c2ccc(Cl)cc2)o1,"inconclusive: 6.75 µM [inhibitor, partial curve, poor fit]"
4,Cc1[nH]c2ccccc2c1C(=O)C(=O)NCc1cccs1,inactive
5,COc1cccc(/C=N/NC(=O)CNC(=O)C(c2ccccc2)c2ccccc2)c1O,active: 4.78 µM
6,CCOC(=O)N/N=C(\C)c1ccc(C)c([N+](=O)[O-])c1,"inconclusive: 26.9 µM [inhibitor, partial curve, poor fit]"
7,COc1ccc(/C=C/C(=O)N/C(=C\c2ccco2)C(=O)NCCc2nc3ccccc3[nH]2)cc1,"inconclusive: 21.3 µM [inhibitor, single point]"
8,O=[N+]([O-])c1cc([N+](=O)[O-])c2nonc2c1Nc1ccc(O)cc1,"inconclusive: 33.8 µM [inhibitor, single point]"
9,COC(=O)c1ccc(CSc2n[nH]c(=S)s2)o1,"inconclusive: 26.9 µM [inhibitor, partial curve, poor fit]"
10,COc1ccc(NC(C)=O)cc1CNC(=O)COc1ccccc1C(=O)Nc1cccc(C)c1C,"inconclusive: 37.9 µM [inhibitor, partial curve, poor fit]"
11,Cc1c(Cl)cccc1NS(=O)(=O)c1ccc(NS(=O)(=O)c2ccc3c(c2)OCCO3)cc1,"inconclusive: 15.1 µM [inhibitor, partial curve]"
12,COc1ccc(/C=N/NC(=O)c2cccc(COCC(F)(F)C(F)F)c2)cc1,active: 5.36 µM
13,Cc1ccc(NC(=O)N2CCCC2C(=O)Nc2c(C)cc(C)cc2C)cc1 (stereo not given),"inconclusive: 37.9 µM [inhibitor, partial curve, poor fit]"
14,COc1ccccc1CN1CC(C(=O)NCCc2ccccc2Cl)CCC1=O (stereo not given),"inconclusive: 30.1 µM [inhibitor, partial curve, poor fit]"
15,CC(NC(=O)CCc1nnc(-c2ccccc2)o1)c1ccccc1 (stereo not given),"inconclusive: 19 µM [inhibitor, single point]"
16,O=C(Cc1ccccc1F)Nc1cccc2cccnc12,"inconclusive: 33.8 µM [inhibitor, partial curve, poor fit]"
17,CCc1ccc(CN(C(=O)Nc2cccc(Cl)c2)c2ccccn2)cc1,inactive
18,O=C(NCc1cccnc1)c1ccccc1-c1nc(-c2ccccc2)no1,"inconclusive: 37.9 µM [inhibitor, single point]"
19,CCCCOc1ccc(OCCSc2nc3ccccc3n2CC(=O)O)cc1,"inconclusive: 21.3 µM [inhibitor, partial curve]"
20,COC(=O)c1nc2n(n1)C(c1cc(OC)ccc1OC)C=C(c1ccc(Br)cc1)N2 (stereo not given),inactive
21,CCC(C)NCC(=O)Nc1ccc(S(N)(=O)=O)cc1 (stereo not given),inactive
22,Cc1ccc(/C=N\NC(=O)/C(=C\Nc2nccc(C)n2)NC(=O)c2ccccc2)cc1,active: 15.1 µM
23,CCOC(=O)C1=C(CC)Nc2ccccc2N/C1=N\S(=O)(=O)c1cc(Br)ccc1Br,"inconclusive: 23.9 µM [inhibitor, partial curve]"
24,CCC(CC)C(=O)Nc1nnc(S(=O)(=O)N2c3ccccc3CC2C)s1 (stereo not given),active: 16.9 µM

row,SMILES,Potency
1,COc1ccc(NC(=O)Nc2sc(NS(=O)(=O)c3ccccc3)nc2C)cc1,"inconclusive: 26.9 µM [inhibitor, single point]"
2,COc1ccc(/C=N/Nc2cc(N3CCOCC3)ncn2)c(OC)c1,inactive
3,COC(=O)c1cc2c(C)[nH]c(C)c2cc(C(=O)OC)c1=O,"inconclusive: 26.9 µM [inhibitor, single point]"
4,CCOc1ccc(NC(=O)c2ccc(NC(=S)NC3CCCCC3)cc2)cc1,"inconclusive: 15.1 µM [inhibitor, partial curve]"
5,COc1ccc2[nH]c(C(=O)NCc3ccc4c(c3)OCO4)cc2c1,"inconclusive: 37.9 µM [inhibitor, single point]"
6,CC1(C)CN(c2ccc(-c3ccnc4ncnn34)cc2)C1=O,"inconclusive: 37.9 µM [inhibitor, partial curve, poor fit]"
7,O=C(c1ccco1)N1CCN(Cc2ccc(Br)cc2)CC1,inactive
8,O=C(N/N=C/c1ccc2nccnc2c1)c1ccccc1O,active: 0.269 µM
9,c1cc(-c2noc(CC3CCCCC3)n2)ccn1,"inconclusive: 37.9 µM [inhibitor, single point]"
10,CCN(CC)CCn1c(NC(=O)c2ccc(C)cc2)nc2ccccc21,"inconclusive: 23.9 µM [inhibitor, single point]"
11,CCc1ccc(-n2nc(CO)c(C(=O)NCc3cccnc3)n2)cc1,"inconclusive: 21.3 µM [inhibitor, single point]"
12,Cc1ccc(NC(=O)CSCC(=O)N2CCN(Cc3ccc4c(c3)OCO4)CC2)cc1,inactive
13,Cn1c(/C=N/Nc2nc3ccccc3[nH]2)nc2ccccc21,active: 1.51 µM
14,CCN1CCN(C(=O)c2ccc3c(c2)c(C)c(C)n3Cc2ccccc2)CC1,"inconclusive: 21.3 µM [inhibitor, partial curve, poor fit]"
15,COC(=O)c1ccc(NC(=O)Nc2ccccc2F)cc1,active: 2.13 µM
16,Cc1ccc(-c2onc(C)c2C)cc1S(=O)(=O)Nc1cccc(Cl)c1C,"inconclusive: 23.9 µM [inhibitor, partial curve]"
17,Cc1nnc(NC(=O)CCNC(=O)c2ccccc2Cl)s1,inactive
18,CC(C)CCOc1ccc(/C=N/N2C(=O)CSC2=S)cc1,"inconclusive: 21.3 µM [inhibitor, single point]"
19,COc1ccc(-c2ccc(SCC(=O)NCc3ccco3)nn2)cc1OC,active: 21.3 µM
20,Cc1ccc(NC(=O)c2ccc(OCC3CCCO3)cc2)c(C)c1 (stereo not given),"inconclusive: 21.3 µM [inhibitor, single point]"
21,COc1ccc(-c2cc(C(F)(F)F)n3nc(C(=O)Nc4sc5c(c4C(=O)OC(C)C)CCC(C)C5)cc3n2)cc1 (stereo not given),inactive
22,COc1ccc(C(=O)Cc2ccc(OC)c(OC)c2)c(OC)c1,"inconclusive: 26.9 µM [inhibitor, partial curve, poor fit]"
23,Cc1ccc2cc(C)c(SCC#N)nc2c1,"inconclusive: 23.9 µM [inhibitor, partial curve, poor fit]"
24,Cc1ccc(NC(=O)C(c2ccccc2)N2CCN(CC(=O)N3CCOCC3)CC2)cc1Cl (stereo not given),"inconclusive: 37.9 µM [inhibitor, partial curve, poor fit]"

row,SMILES,Potency
1,CC(=O)Cc1nsc(NC(=O)c2ccccc2)n1,"inconclusive: 26.9 µM [inhibitor, partial curve, poor fit]"
2,CNc1nc(-c2ccc3c(c2)CCN3C(=O)c2ccc(F)cc2)cs1,active: 12 µM
3,O=C(NNC(=O)c1ccccc1Br)c1cccc(Cl)c1,"inconclusive: 16.9 µM [inhibitor, single point]"
4,Cc1ccc(/C=N\NC(=O)C2CC(=O)N(c3ccccc3)C2)o1 (stereo not given),"inconclusive: 37.9 µM [inhibitor, partial curve, poor fit]"
5,O=C(Nc1ccc(CN2CCOCC2)cc1)c1ccc(N2CCCC2)c([N+](=O)[O-])c1,"inconclusive: 23.9 µM [inhibitor, single point]"
6,O=C(Nc1cccc(Br)c1)c1ccc2nc(N3C(=O)CCC3=O)sc2c1,active: 16.9 µM
7,COC(=O)NNC(=O)COc1ccc2ccccc2c1Br,"inconclusive: 26.9 µM [inhibitor, partial curve, poor fit]"
8,O=C(NCCCc1nc2ccccc2n1Cc1ccc(Cl)cc1)C1CCCCC1,"inconclusive: 19 µM [inhibitor, partial curve, poor fit]"
9,O=C(c1sc2cc(Cl)ccc2c1Cl)N1CCN(CCc2ccccn2)CC1,inactive
10,Cc1ccc(CNC(=O)C2CCN(S(=O)(=O)c3cn(C)cn3)CC2)cc1,inactive
11,CCOC(=O)C1(Cc2ccccc2C(F)(F)F)CCN(C(=O)c2cc(C)n(C)n2)CC1,"inconclusive: 21.3 µM [inhibitor, partial curve]"
12,COc1ccc(/C=C/C(=O)Nc2cccnc2Cl)cc1,active: 5.36 µM
13,O=C(c1cc(COc2cccc(C(F)(F)F)c2)on1)N1CCSCC1,inactive
14,COc1cc(NC(=O)c2ccc(C)cc2C)ccc1NC(=O)c1cccs1,"inconclusive: 2.39 µM [inhibitor, partial curve, poor fit]"
15,CC1CCN(CCCNC(=O)c2coc3nc4ccccc4nc23)CC1,"inconclusive: 23.9 µM [inhibitor, single point]"
16,Cc1c(C(=O)N2CCOCC2)[nH]c2ccc(OCc3ccccc3)cc12,"inconclusive: 12 µM [inhibitor, partial curve, poor fit]"
17,O=C(Nc1ccncc1)c1sc2ccccc2c1Cl,"inconclusive: 7.57 µM [inhibitor, full curve]"
18,Nc1ccc2c(c1)OC1(CCCCC1)O2,"inconclusive: 30.1 µM [inhibitor, partial curve, poor fit]"
19,CCOC(=O)N1CCN(C(=O)c2cc(COc3ccc4ncccc4c3)on2)CC1,inactive
20,CCCCN1CC(O)=C(c2nc3ccccc3[nH]2)C1=N,"inconclusive: 9.53 µM [inhibitor, partial curve, poor fit]"
21,Cc1ccc(-c2cn(-c3ccc(SC(F)F)cc3)c3[n+]2CCC3)cc1,inactive
22,CC12CCC(=O)N1C(C(=O)Nc1nc3ccc(Cl)cc3s1)CS2 (stereo not given),"inconclusive: 26.9 µM [inhibitor, single point]"
